The supplement of paper PMC8183993
Where “and” joins values, the source holds several entries; their conditions need not be identical. Equal entries are not always repeated. Structures can show the parent of a compound that is named as a salt. ± gives the standard deviation of the averaged measurements. Over roughly 3,100 compounds, “mean cytoplasmic OPP incorporation (global translation) relative to DMSO” has its median near 100; the lowest 2% begin near 56. Some of the results follow.

What follows are molecules tested on U2OS (assay: mean cytoplasmic OPP incorporation (global translation) relative to DMSO (% of DMSO); higher = more protein synthesis). Settings: 10 µM; 24 h.
Method: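 Primary image-based screen in U2OS cells: compounds at 10 uM for 24 h, then a 1 h o-propargyl-puromycin (OPP) pulse, click labelling, and high-throughput microscopy. Mean cytoplasmic OPP intensity and nuclei count were normalised to DMSO wells within each plate (DMSO = 100) and averaged over triplicate plates.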

First: O=C(Cn1ccnc1[N+](=O)[O-])NCCO [Etanidazole]
Second: O=c1ncccn1[C@@H]1O[C@H](CO)[C@@H](O)[C@H]1O [Zebularine]
The “mean cytoplasmic OPP incorporation” value of the first is lower: 84.7 for the first, 99.5 ± 2.7 for the second.

Compared with `CCc1cc(C(C)=O)c(O)cc1OCCCCCC(C)(C)c1nn[nH]n1`, `CCOC(=O)c1ccc(OC(=O)CCCCCNC(=N)N)cc1` [Gabexate mesylate] is lower in “mean cytoplasmic OPP incorporation” value: 98.2 for the first, 95.4 for the second.

Compared with `C[C@H](NC(=O)c1sccc1OCc1ccc(Cl)cc1)c1ccccc1`, `O=C(Nc1ccc(OC(F)(F)F)cc1)c1sccc1NCc1ccnc2ccccc12` is higher in “mean cytoplasmic OPP incorporation” value: 107 for the first, 116 for the second.

Going from `CO[C@H]1/C=C/O[C@@]2(C)Oc3c(C)c(O)c4c(c3C2=O)C2=NC3(CCN(CC(C)C)CC3)NC2=C(NC(=O)/C(C)=C\C=C\[C@H](C)[C@H](O)[C@@H](C)[C@@H](O)[C@@H](C)[C@H](OC(C)=O)[C@@H]1C)C4=O` [Rifabutin] to `CO[C@@H]1[C@@H](OC(N)=O)[C@@H](O)[C@H](Oc2ccc3c(O)c(NC(=O)c4ccc(O)c(CC=C(C)C)c4)c(=O)oc3c2C)OC1(C)C` [Novobiocin sodium salt], the “mean cytoplasmic OPP incorporation” value falls from 116 to 109.

Going from `CO[C@H]1/C=C/O[C@@]2(C)Oc3c(C)c(O)c4c(c3C2=O)C2=NC3(CCN(CC(C)C)CC3)NC2=C(NC(=O)/C(C)=C\C=C\[C@H](C)[C@H](O)[C@@H](C)[C@@H](O)[C@@H](C)[C@H](OC(C)=O)[C@@H]1C)C4=O` [Rifabutin (Mycobutin)] to `COc1c(O[C@@H]2O[C@H](CO)[C@@H](O)[C@H](O)[C@H]2O)cc2c(c1OC)-c1ccc(SC)c(=O)cc1[C@@H](NC(C)=O)CC2` [Thiocolchicoside], the “mean cytoplasmic OPP incorporation” value falls from 113 to 96.4.

`O=c1cc(-c2ccc(O)cc2)oc2cc(O)cc(O)c12` [Apigenin] and `Cc1cc(=O)oc2cc(O)ccc12` [Hymecromone] are within error of each other in “mean cytoplasmic OPP incorporation” value: 103 ± 6.7 for the first, 98.3 for the second.

First: CC(C)n1nc(-c2cc3cc(O)ccc3[nH]2)c2c(N)ncnc21 [Torkinib (PP242)]
Second: CC(C)(C)Cn1c(N)nc2ccc(-c3[nH]c(C(C)(C)C)nc3-c3ccc(F)cc3)nc21
The “mean cytoplasmic OPP incorporation” value of the first is lower: 52.5 for the first, 106 for the second.

First: NC(=O)N1c2ccccc2C=Cc2ccccc21 [Carbamazepine]
Second: CCOC(=O)[C@H](CCc1ccccc1)N[C@H]1CCc2ccccc2N(CC(=O)O)C1=O [Benazepril hydrochloride]
The “mean cytoplasmic OPP incorporation” value of the first is higher: 102 for the first, 97.9 for the second.

Going from `N#Cc1ccccc1OCC(O)CNCCNC(=O)Nc1ccccc1` (stereo unspecified) to `CC(COc1ccccc1)N(CCCl)Cc1ccccc1` (stereo unspecified) [Phenoxybenzamine hydrochloride], the “mean cytoplasmic OPP incorporation” value falls from 110 to 98.

Going from `CNc1nc(Nc2cnn([C@H]3CCN(C4COC4)C[C@@H]3F)c2Cl)ncc1C(F)(F)F` to `Cc1ccc(C(=O)Nc2ccc(CN3CCN(C)CC3)c(C(F)(F)F)c2)cc1C#Cc1cnc2cccnn12`, the “mean cytoplasmic OPP incorporation” value falls from 97.9 to 32.7.

Compared with `Clc1ccc(C(Cn2ccnc2)OCc2c(Cl)cccc2Cl)c(Cl)c1` (stereo unspecified) [Isoconazole], `COc1cccc(NC(=O)/C=C/c2ccc(Cl)cc2)c1` is lower in “mean cytoplasmic OPP incorporation” value: 103 for the first, 102 for the second.

Compared with `O=C(CCCCCCNC(=O)c1cnc(N(c2ccccc2)c2ccccc2)nc1)NO` [Rocilinostat (ACY-1215)], `CN(NC(=O)CC(=O)NN(C)C(=S)c1ccccc1)C(=S)c1ccccc1` [Elesclomol] is higher in “mean cytoplasmic OPP incorporation” value: 65.8 for the first, 94.4 for the second.

Compared with `CN(C)CCN(Cc1cccs1)c1ccccn1` [Methapyrilene hydrochloride], `COc1ccc(CN(CCN(C)C)c2ccccn2)cc1` [Mepyramine maleate] is lower in “mean cytoplasmic OPP incorporation” value: 96.8 for the first, 96.1 for the second.

Compared with `CNC(=O)c1cc2c(cn1)[nH]c1ccccc12`, `CC(C)(C)c1[nH]cnc1/C=c1\[nH]c(=O)/c(=C/c2ccccc2)[nH]c1=O` [NPI-2358 (Plinabulin)] is higher in “mean cytoplasmic OPP incorporation” value: 99 for the first, 114 for the second.

Going from `CCOC(=O)c1ccc(OC(=O)CCCCCNC(=N)N)cc1` [Gabexate mesilate] to `CCOC(=O)[C@H](CCc1ccccc1)N[C@H]1CCc2ccccc2N(CC(=O)O)C1=O` [Benazepril HCl], the “mean cytoplasmic OPP incorporation” value falls from 105 to 82.7.

Compared with `CSc1nc(NC2CCCC2)c([N+](=O)[O-])c(NC2CCCC2)n1`, `Cc1c(C(=O)NC2CCCCC2)sc2nc3ccc(N)cc3n12` is higher in “mean cytoplasmic OPP incorporation” value: 101 for the first, 106 for the second.

Compared with `CCCN[C@H]1CCc2nc(N)sc2C1` [Pramipexole], `CCCNC(C)C(=O)Nc1ccccc1C` (stereo unspecified) [Prilocaine hydrochloride] is lower in “mean cytoplasmic OPP incorporation” value: 109 for the first, 96.5 for the second.

Going from `CC(=O)c1ccc(S(=O)(=O)NC(=O)NC2CCCCC2)cc1` [Acetohexamide] to `O=C(Nc1c[nH]nc1-c1nc2ccc(CN3CCOCC3)cc2[nH]1)NC1CC1`, the “mean cytoplasmic OPP incorporation” value falls from 106 to 65.1.

First: CCSC(=N)N [EIT hydrobromide]
Second: NC(=O)CC[C@@H](N)C(=O)O [D-glutamine]
The “mean cytoplasmic OPP incorporation” value of the first is lower: 93 for the first, 96.9 for the second.

`CCCCC[C@H](O)/C=C/[C@@H]1[C@@H](C/C=C\CCCC(=O)O)[C@@H](O)C[C@H]1O` [Dinoprost trometamol] and `NCCCC[C@H](N[C@@H](CCc1ccccc1)C(=O)O)C(=O)N1CCC[C@H]1C(=O)O` [Lisinopril] are within error of each other in “mean cytoplasmic OPP incorporation” value: 97.5 for the first, 97.9 ± 5.7 for the second.

Going from `Nc1ncn([C@@H]2O[C@H](CO)[C@@H](O)[C@H]2O)c(=O)n1` [Azacitidine (Vidaza)] to `OC[C@H]1O[C@@H](Oc2ccc(O)cc2)[C@H](O)[C@@H](O)[C@@H]1O` [Arbutin], the “mean cytoplasmic OPP incorporation” value falls from 116 to 113.

First: COc1ccc(CN(CCN(C)C)c2ccccn2)cc1 [Pyrilamine maleate]
Second: CN(C)CCC[C@@]1(c2ccc(F)cc2)OCc2cc(C#N)ccc21 [Escitalopram]
The “mean cytoplasmic OPP incorporation” value of the first is lower: 97.6 for the first, 101 for the second.

First: COc1cc(/C=C/C(=O)N2CCN(CC(=O)N3CCCC3)CC2)cc(OC)c1OC [Cinepazide maleate]
Second: Cc1scc2c1N(C(=O)CN1CCN(C)CC1)c1ccccc1NC2=O [Telenzepine dihydrochloride]
The “mean cytoplasmic OPP incorporation” value of the first is higher: 104 for the first, 98.4 ± 5.2 for the second.

Compared with `c1ccc(C2CN3CCSC3=N2)cc1` (stereo unspecified) [Tetramisole hydrochloride], `O=C(O[C@H]1CN2CCC1CC2)N1CCc2ccccc2[C@@H]1c1ccccc1` [Solifenacin succinate] is higher in “mean cytoplasmic OPP incorporation” value: 99.7 for the first, 107 for the second.

Compared with `c1ccc(C2CN3CCSC3=N2)cc1` (stereo unspecified) [Tetramisole HCl], `O=S(=O)(c1ccccc1)c1cnc2c(N3CCNCC3)cccc2c1` is higher in “mean cytoplasmic OPP incorporation” value: 103 for the first, 108 for the second.

Going from `C=C1c2cccc(O)c2C(=O)C2=C(O)[C@]3(O)C(=O)C(C(N)=O)=C(O)[C@@H](N(C)C)[C@@H]3[C@@H](O)[C@H]12` [Methacycline hydrochloride] to `CCN1CCN(C(=O)N[C@@H](C(=O)N[C@@H]2C(=O)N3[C@@H]2SC(C)(C)[C@@H]3C(=O)O)c2ccccc2)C(=O)C1=O` [Piperacillin sodium salt], the “mean cytoplasmic OPP incorporation” value falls from 110 to 104.

Compared with `Cn1c(=O)c2nc[nH]c2n(C)c1=O` [Theophylline monohydrate], `CC1=CC(=O)NS(=O)(=O)O1` [Acesulfame Potassium] is higher in “mean cytoplasmic OPP incorporation” value: 101 for the first, 107 for the second.

Compared with `CC(C)(C)NC[C@H](O)COc1nsnc1N1CCOCC1` [(S)-Timolol maleate], `O=C(c1cccc(Cl)c1F)N1CCN(Cc2cccc(Nc3nccs3)n2)CC1` is higher in “mean cytoplasmic OPP incorporation” value: 99.3 for the first, 121 for the second.

Going from `CC(C)(C)NC[C@H](O)COc1nsnc1N1CCOCC1` [Timolol maleate salt] to `CC(C)C[C@H](NC(=O)[C@H](CCc1ccccc1)NC(=O)CN1CCOCC1)C(=O)N[C@@H](Cc1ccccc1)C(=O)N[C@@H](CC(C)C)C(=O)[C@@]1(C)CO1` [Carfilzomib (PR-171)], the “mean cytoplasmic OPP incorporation” value falls from 103 to 63.9.

Compared with `O=C(Nc1cccc2c(=O)cc(-c3nnn[nH]3)oc12)c1ccc(OCCCCc2ccccc2)cc1` [Pranlukast], `CN1CCCC(n2nc(Cc3ccc(Cl)cc3)c3ccccc3c2=O)CC1` (stereo unspecified) [Azelastine HCl] is higher in “mean cytoplasmic OPP incorporation” value: 99.4 ± 5.9 for the first, 111 for the second.

First: CC(C)[C@H]1C(=O)N[C@@H](CCCNC(=N)N)C(=O)NCC(=O)N[C@@H](CC(=O)O)C(=O)N[C@H](Cc2ccccc2)C(=O)N1C
Second: CCOC(=O)OC(C)OC(=O)[C@@H]1N2C(=O)[C@@H](NC(=O)[C@H](N)c3ccccc3)[C@H]2SC1(C)C (stereo partly specified) [Bacampicillin hydrochloride]
The “mean cytoplasmic OPP incorporation” value of the first is higher: 104 for the first, 92.6 for the second.

`COC1=C(OC)C(=O)C(CCCCCCCCCCO)=C(C)C1=O` [Idebenone] and `COc1ccc(S(=O)(=O)N2c3ccc(Cl)cc3[C@](O)(c3ccccc3Cl)[C@@H]2C(=O)N2CCC[C@H]2C(N)=O)cc1OC` are within error of each other in “mean cytoplasmic OPP incorporation” value: 101 ± 8 for the first, 102 for the second.

Going from `O=c1oc(-c2ccc(C(F)(F)F)cc2)nn1Cc1cc(Cl)ccc1O` to `Fc1ccc(-c2nc3n(c2-c2ccncc2)CCS3)cc1`, the “mean cytoplasmic OPP incorporation” value falls from 105 to 102.

Going from `CCCC(=O)Nc1ncnc2c1ncn2[C@@H]1O[C@@H]2COP(=O)(O)O[C@H]2[C@H]1OC(=O)CCC` [Bucladesine sodium salt] to `Nc1nc2c(nc(Br)n2[C@@H]2O[C@@H]3COP(=O)(O)O[C@H]3[C@H]2O)c(=O)[nH]1` [8-Bromo-cGMP, sodium salt], the “mean cytoplasmic OPP incorporation” value falls from 96.8 to 95.5.

Going from `CCCC(=O)Nc1ncnc2c1ncn2[C@@H]1O[C@@H]2COP(=O)(O)O[C@H]2[C@H]1OC(=O)CCC` [Dibutyryl-cAMP, sodium salt] to `CN(C)CCc1c[nH]c2ccc(Cn3cncn3)cc12` [Rizatriptan Benzoate (Maxalt)], the “mean cytoplasmic OPP incorporation” value falls from 110 to 102.

First: NC(=O)N/N=C/c1ccc([N+](=O)[O-])o1 [Nitrofural]
Second: Nc1ccc(S(=O)(=O)c2ccc(N)cc2)cc1 [Dapsone]
The “mean cytoplasmic OPP incorporation” value of the first is higher: 95.9 for the first, 95.4 for the second.

Compared with `CN1CCCCC1CCN1c2ccccc2Sc2ccc([S+](C)[O-])cc21` (stereo unspecified) [Mesoridazine besylate], `OCCN1CCN(CCCN2c3ccccc3Sc3ccc(Cl)cc32)CC1` [Perphenazine] is higher in “mean cytoplasmic OPP incorporation” value: 93 for the first, 117 for the second.

`O=C(c1ccc(C(=O)N2CCC(N3CCCC3)CC2)c(Nc2ccccc2)c1)N1CCC(N2CCCC2)CC1` was tested, and the “mean cytoplasmic OPP incorporation” value was 104.

In the case of `O=Nc1ccc(O)c2ncccc12`, the “mean cytoplasmic OPP incorporation” value is reported as 89.8 and 59.3.
